In the RNAGym collection of RNA variant scans (doi:10.1101/gad.245936.114) one finds nonsense suppression data, which are given here for 27 variants.

B1: tRNA (parent)
chain: CUCUCGGUAGCCAAGUUGGUUUAAGGCGCAAGACUUUAAUUUAUCACUACGAAAUCUUGAGAUCGGGCGUUCGACUCGCCCCCGGGAGAUUUUUUCCUCGAGCAA

Variants at the background level are over-represented here.

Variants of B1 are the subject of the data set. In words: nonsense suppression (GFP-seq) (ratio to wild type); higher = more function; SUP4oc tRNA, yeast GFP reporter sort-seq. The method, boiled down: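 Each variant's nonsense suppression (GFPSEQ) is a cell-share-weighted bin median GFP/RFP relative to the unmutated parent tRNA. Yeast with genome-integrated tRNA variants from a ~3% random-mutation library, a galactose-driven GFP ochre reporter and RFP were grown in raffinose/galactose medium with 80 mg/L adenine, then sorted into GFP/RFP bins for Illumina sequencing. Variants needed ≥100 reads and ≥30 cells.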
With CUCUCGGUAGCCAAGUUGGUUUAAUGCGCAAGACGUUAAUUUAUCACUACGAAAUCUUGAGAUCGGGCGUUCGACUCGCCCCCCGGAGAUUUUUUCCUCGAGCAA, the nonsense suppression is no more than 0.026.

As for CUGUCGGUAGCCAAGUUGGUUUAAGGUGCAAGACUUUAAUUUAUCACUACGAAAUCUUGAGAGCGGGCGUUCGACUCGCCCCUGAGAGAUUUUUUCCUCGAGCAA, the nonsense suppression is no more than 0.026.

With CUCUCGGUAGUCAAGUUGGUUUAAGGCGCAAGACUUUAAUUUAUCACUACGAAAUCUUGAGAGCGGGCGUUCGCCUCGCCCCCGGGAGAUUUUUUCCUCGAGCAA, the nonsense suppression is no more than 0.026.

On to CUCUCGCUAGCCAAGUUGGUGUAAGGCGCAAGACUUUAAUUUAUCACUACGAAAUCUUGAGAUCGGGCGUUCGACUCGCCCCCGGGAGAUUUUUUCCUCGAGCAA, for which the nonsense suppression was determined as 0.0521.

As for CUCUCGGUAGCCAAUUUGGUUUAAGGCGCAAGACUUUAAUUUAUCACUACGAAAUCUUGAGGUCGGGCGUUCGACUCGCCCCCGGGAGAUUUUUUCCUCGAGCAA, the nonsense suppression was no more than 0.026.

For the variant CUCUCGGUCGCCAAGUUGGUUUAAAACGCAAGACUUUAAUUUAUCACUACGAAAUCUUGAGAUCGGGCGUUCGACUCGCCCCCGGGAUAUUUUUUCCUCGAGCAA, the nonsense suppression is no more than 0.026.

CUCUCGGUAGCCAAGUUGGUUUAAGGCGCAAGACGUUAAUUUAUCACUACGAAAUCUUGAGAUCGGGGGUUCGACUCGCCCUCGGGAGAUUUUUUCCUCGAGCAA: the nonsense suppression was no more than 0.026.

As to CUCUCGGUAGCCAAGUUGGUUUAAGGCGCAAGACUUUAAUUUAUCACUACGAAAUCUUGAGAUCGGGCGUUCGACUCGCCCUGGGGAGAUUUUUUCCUCGAGCAA, the nonsense suppression is no more than 0.026.

Take CUCUCGGUAGCCAAGUUGGUUUAAGGCGCAAGAGUUUAAUUUAUCACUACGAAGUCUUGAGAUCGGGCGUUCGACUCGACCCCGGGAGAUUUUUUCCUCGAGCAA: the nonsense suppression is no more than 0.026.

CUCUCGGUAGCCAAGUUGGUUUCAGGCGCUAGAGUUUAAUUUAUCACUACGAAAUCUUGAGAUCGGGCGCUGGACUCGCCCCCGGGAGAUUUUUUCCUCGAGCAA: the nonsense suppression was no more than 0.026.

As for CUCUCGGUAGCCAUGUUGGUUUAAGGCGCAAGACUUUAAUUUAUCACUACGAAAUCUUGAGCUCGGGCGUUCGAUUCGCCCCCGGGAGAUUUUUUCCUCGAGCAA, the nonsense suppression is no more than 0.026.

As for CUCUCGGUAGCCAAGUUGGUUCAAGGCGCAAGACUUUAAUUUAUCACUACGAAAUCUUCAGAUCGGGCGUUCGACUCGCCCCCGGGAGAUUUUUUCCUCGAGCAA, the nonsense suppression was no more than 0.026.

In the case of CUCUCGGUAGCCAAGUUGGUCUAAGGCGAAAGACUUUAAUUUAUCACUACGAAAUCUUGAGAUCGGGCGUUCGACUCGCCCCCGGGUGAUUUUUUCCUCGAGCAA, the nonsense suppression is no more than 0.026.

For CUCUCGGUAGCCAAAUUGGUUUAAGGCGCAAGACUUUAAUUUAUCACUACGAAAUCCUGACAUCGGGCGUUCGACUCGCCCCCGGGAGAUUUUUUCCUCGAGCAA, the nonsense suppression is no more than 0.026.

With CUCUCGGUAGCCAAGUUGGUUUAAGGCGCAAAACUUUAAUUUAUCACUACGAAAUCUUGAAAUCGGGCUUUCGACUCGCCCCCGGGAGAUUUUUUCCUCGAGCAA, the nonsense suppression is no more than 0.026.

In the case of CUCUCGGUCGCCAAGUUGGUUUAAGGCGCAAGACUUUAAUUUAUCACUACGAAAUCUUGCGAUCGGGCGUUCAACUCGCCCCCGGGAGAUUUUUUCCUCGAGCAA, the nonsense suppression was no more than 0.026.

CUCUCGGUAGCCAAGUUGGUUUAUGGCGCAAGACUUUAAUUUAUCACUACGAAAUCUUGGGAUCGGGCGUUCGACUCGCCCCCGGGAGAUUUUUUCCUCGAGCAA: the nonsense suppression worked out at 0.0422.

On to CUCUCGGUAGCCAAGUUUGUUUAAGGCGCAAGACUUUAAUUUAUCACUACGAAAUCUUGAUAUCGGGCGUUCGACUCGCCCCCGGGAGAUUUUUUCCUCGAGCAA, for which the nonsense suppression was no more than 0.026.

As to CUCUCGGUAGCCAAGUUGGUUUAAGGCGCAAGACUUUAAUUUAUCACUACGAAAUGUUGAGAUCGGGCUUUCGACUCGCCCCCGGGAGAUUUUUUCCUCGAGCAA, the nonsense suppression is no more than 0.026.

As to CUCUAGGUAGCCAAGAUGGUUUAAGGCGCAAGACUUUAAUUUAUCACUACGAAAUCUUGAGAUCGGGCGUUCGACUCGCCCCAGGGAGAUUUUUUCCUCGAGCAA, the nonsense suppression was no more than 0.026.

With CUCUCGGUAGCCAAGUUGGUUUAAGGCGCAAGACUUUAAUUUAUCACUACGAAAUCUUGAGCUCGGGCGUUCGACUCGCCCCCGGGUGAUUUUUUCCUCGAGCAA, the nonsense suppression is no more than 0.026.

In the case of CUCUCGUUAGCCAAGUUGGUUUAAGGGGCAAGACUUUAAUUUAUCACUACGAAAUCUUGAGAUCAGGCGUUCGACUCGCCCCCGGGAGAUUUUUUCCUCGAGCAA, the nonsense suppression was no more than 0.026.

On to CUCUCGCUAGCCAAGUUGGUUUAAGGCGCAUGACUUUAAUUUAUCACUACGAAAUCUUGAGAUCGGGCGUUCGACUCUCCCCCGGGAGAUUUUUUCCUCGAGCAA, for which the nonsense suppression is no more than 0.026.

As to CUCUCGGGAGCCAAGUUGGCUUAAGGCGCAAGACUUUAAUUUAUCACUACGAAAUCUUGAGAUCGGGCGUUCGACUCGCCCCCGGGAGAUUUUUUCCUCGAGCAA, the nonsense suppression was no more than 0.026.

On to CUCUCGGUAGCCAAGUUCGUUUAAGGCGCAAGACUUUAAUUUAUCACUACGAAACCUUGAGAUCGGGCGUUCGACUCGCCCCCGGGAGGUUUUUUCCUCGAGCAA, for which the nonsense suppression was no more than 0.026.

Consider CUCUCGGUAGCCAAGUUGGUGUAAGGCGCAAGACUUUAAUUUAUCACUACGAAAUCUUGAGAUCGGGCGUUCUACUCGCCCCCGGGAGAUUUUUUCCUCGAGCAA, for which the nonsense suppression came to 0.026.

Consider CUCUCGGUAGCCAAGUUGGUUUAAGGCGCAAGACUUUAAUUUAUCACUACGAAAUCUUAAGAUCCGGCGUUCGACUCGCCCCCGGGACAUUUUUUCCUCGAGCAA, for which the nonsense suppression is no more than 0.026.
